# Data published in paper PMC12820563, “FoxP3 forms a head-to-head dimer in vivo and stabilizes its multimerization on adjacent microsatellites”.
# The list shows a part of the results.
# Molecular target: T1, MBP-FoxP1dN (Mus musculus, UniProt P58462 326-579)
# T1 sequence: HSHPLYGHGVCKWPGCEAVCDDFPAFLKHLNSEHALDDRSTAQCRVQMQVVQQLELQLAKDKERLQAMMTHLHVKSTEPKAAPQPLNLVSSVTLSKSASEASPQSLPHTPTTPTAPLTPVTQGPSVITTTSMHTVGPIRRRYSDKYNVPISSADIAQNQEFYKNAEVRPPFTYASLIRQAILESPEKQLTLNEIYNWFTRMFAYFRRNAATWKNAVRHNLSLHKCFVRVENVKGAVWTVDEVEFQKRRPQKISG
# Experiment: PD-seq (MBP pull-down with sequencing); 20 mM Tris-HCl pH 7.5, 100 mM NaCl, 1.5 mM MgCl2, 0.4 uM protein, 0.1 uM dsDNA library, 30 min, room temperature, amylose pull-down; high values mean tight binding
# Details: protein: recombinant; tags: His6-MBP; chain copies: 2; dsDNA, one strand shown
# Procedure, shortened: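 The N-terminus-lacking fragment of mouse FoxP3 or FoxP1 carried a His6-MBP tag and was expressed in E. coli. At 0.4 µM it was incubated with 0.1 µM Klenow-filled degenerate double-stranded DNA library for 30 min at room temperature in Tris pH 7.5 buffer with NaCl and MgCl2, and complexes were caught on amylose resin, washed three times, released with proteinase K, PCR-barcoded and Illumina-sequenced. Binding is reads-per-million enrichment of pull-down over input with replicates pooled.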
row,Sequence,binding signal
1,GATGATTGTTCTCCCAGCTGATGAATTGGCATCTTCGAGTAAACAAATTTTCCTAATCTTTCTGTTCAAGCGCCATCTAC,1.1 RPM ratio (pull-down/input)
2,GATGATTGTTCTCCCAGCTGATGAATTAAGGCCTTCGAGTAAACAAATTTTCCTAATCTTTCTGTTCAAGCGCCATCTAC,0.867 RPM ratio (pull-down/input)
3,GATGATTGTTCTCCCAGCTGATGAATTTAGGACGTCGAGTAAACAAATTTTCCTAATCTTTCTGTTCAAGCGCCATCTAC,0.956 RPM ratio (pull-down/input)
4,GATGATTGTTCTCCCAGCTGATGAATTACTATGTTCGAGTAAACAAATTTTCCTAATCTTTCTGTTCAAGCGCCATCTAC,1.25 RPM ratio (pull-down/input)
5,GATGATTGTTCTCCCAGCTGATGAATTGTATCAATCGAGTAAACAAATTTTCCTAATCTTTCTGTTCAAGCGCCATCTAC,1.25 RPM ratio (pull-down/input)
6,GATGATTGTTCTCCCAGCTGATGAATTCAATGGCTCGAGTAAACAAATTTTCCTAATCTTTCTGTTCAAGCGCCATCTAC,0.854 RPM ratio (pull-down/input)
7,GATGATTGTTCTCCCAGCTGATGAATTCACGACCTCGAGTAAACAAATTTTCCTAATCTTTCTGTTCAAGCGCCATCTAC,0.767 RPM ratio (pull-down/input)
8,GATGATTGTTCTCCCAGCTGATGAATTAGGCTTCTCGAGTAAACAAATTTTCCTAATCTTTCTGTTCAAGCGCCATCTAC,0.864 RPM ratio (pull-down/input)
9,GATGATTGTTCTCCCAGCTGATGAATTTCTCGACTCGAGTAAACAAATTTTCCTAATCTTTCTGTTCAAGCGCCATCTAC,0.876 RPM ratio (pull-down/input)
10,GATGATTGTTCTCCCAGCTGATGAATTGTGATGCTCGAGTAAACAAATTTTCCTAATCTTTCTGTTCAAGCGCCATCTAC,1.54 RPM ratio (pull-down/input)
11,GATGATTGTTCTCCCAGCTGATGAATTGAACATGTCGAGTAAACAAATTTTCCTAATCTTTCTGTTCAAGCGCCATCTAC,0.848 RPM ratio (pull-down/input)
12,GATGATTGTTCTCCCAGCTGATGAATTGGTTACCTCGAGTAAACAAATTTTCCTAATCTTTCTGTTCAAGCGCCATCTAC,0.933 RPM ratio (pull-down/input)
13,GATGATTGTTCTCCCAGCTGATGAATTCCGGGAGTCGAGTAAACAAATTTTCCTAATCTTTCTGTTCAAGCGCCATCTAC,0.742 RPM ratio (pull-down/input)
14,GATGATTGTTCTCCCAGCTGATGAATTTCCCTTCTCGAGTAAACAAATTTTCCTAATCTTTCTGTTCAAGCGCCATCTAC,0.799 RPM ratio (pull-down/input)
15,GATGATTGTTCTCCCAGCTGATGAATTACGGTATTCGAGTAAACAAATTTTCCTAATCTTTCTGTTCAAGCGCCATCTAC,1.14 RPM ratio (pull-down/input)
16,GATGATTGTTCTCCCAGCTGATGAATTCCTATTCTCGAGTAAACAAATTTTCCTAATCTTTCTGTTCAAGCGCCATCTAC,0.762 RPM ratio (pull-down/input)

row,Sequence,binding signal
1,GATGATTGTTCTCCCAGCTGATGAATTCGCCGCATCGAGTAAACAAATTTTCCTAATCTTTCTGTTCAAGCGCCATCTAC,1.04 RPM ratio (pull-down/input)
2,GATGATTGTTCTCCCAGCTGATGAATTCTTCCCCTCGAGTAAACAAATTTTCCTAATCTTTCTGTTCAAGCGCCATCTAC,0.856 RPM ratio (pull-down/input)
3,GATGATTGTTCTCCCAGCTGATGAATTCACCGGGTCGAGTAAACAAATTTTCCTAATCTTTCTGTTCAAGCGCCATCTAC,0.769 RPM ratio (pull-down/input)
4,GATGATTGTTCTCCCAGCTGATGAATTTTAAGGTTCGAGTAAACAAATTTTCCTAATCTTTCTGTTCAAGCGCCATCTAC,0.819 RPM ratio (pull-down/input)
5,GATGATTGTTCTCCCAGCTGATGAATTGAGCACATCGAGTAAACAAATTTTCCTAATCTTTCTGTTCAAGCGCCATCTAC,1.03 RPM ratio (pull-down/input)
6,GATGATTGTTCTCCCAGCTGATGAATTCCGAAGGTCGAGTAAACAAATTTTCCTAATCTTTCTGTTCAAGCGCCATCTAC,0.755 RPM ratio (pull-down/input)
7,GATGATTGTTCTCCCAGCTGATGAATTCAGTACATCGAGTAAACAAATTTTCCTAATCTTTCTGTTCAAGCGCCATCTAC,1.01 RPM ratio (pull-down/input)
8,GATGATTGTTCTCCCAGCTGATGAATTAAGCAATTCGAGTAAACAAATTTTCCTAATCTTTCTGTTCAAGCGCCATCTAC,1.07 RPM ratio (pull-down/input)
9,GATGATTGTTCTCCCAGCTGATGAATTCGTAAGTTCGAGTAAACAAATTTTCCTAATCTTTCTGTTCAAGCGCCATCTAC,0.865 RPM ratio (pull-down/input)
10,GATGATTGTTCTCCCAGCTGATGAATTAGATAAATCGAGTAAACAAATTTTCCTAATCTTTCTGTTCAAGCGCCATCTAC,1.24 RPM ratio (pull-down/input)
11,GATGATTGTTCTCCCAGCTGATGAATTAAAGTGGTCGAGTAAACAAATTTTCCTAATCTTTCTGTTCAAGCGCCATCTAC,0.825 RPM ratio (pull-down/input)
12,GATGATTGTTCTCCCAGCTGATGAATTCTCTGATTCGAGTAAACAAATTTTCCTAATCTTTCTGTTCAAGCGCCATCTAC,0.893 RPM ratio (pull-down/input)
13,GATGATTGTTCTCCCAGCTGATGAATTTCTGTGTTCGAGTAAACAAATTTTCCTAATCTTTCTGTTCAAGCGCCATCTAC,1.23 RPM ratio (pull-down/input)
14,GATGATTGTTCTCCCAGCTGATGAATTCCGCAAGTCGAGTAAACAAATTTTCCTAATCTTTCTGTTCAAGCGCCATCTAC,0.779 RPM ratio (pull-down/input)
15,GATGATTGTTCTCCCAGCTGATGAATTCCGCGAATCGAGTAAACAAATTTTCCTAATCTTTCTGTTCAAGCGCCATCTAC,0.865 RPM ratio (pull-down/input)
